The full ranking holds about 33,000 sequences; the median of “E-score (-0.5 to 0.5)” is about -0.016, and the highest 2% start at about 0.31. The list shows a part of the results.
The sequences below were run against Cst6 (UniProt P40535) (assay: PBM E-score (8-mer binding enrichment) (E-score (-0.5 to 0.5)); higher = stronger / more preferred TF binding; most listed sequences are background and not binding sites). Conditions: protein concentration: 200 nM; construct: GST-DNA-binding domain.
Description: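 Universal 'all 10-mer' protein binding microarrays (Agilent AMADID 015681) probed with GST-tagged S. cerevisiae TFs (full-length or DBD) made by in vitro transcription/translation (PURExpress), about 100-200 nM. Bound TF was detected with fluorescent anti-GST. Each ungapped 8-mer (which stands for itself and its reverse complement) is scored by the PBM enrichment score (E-score), a modified Wilcoxon-Mann-Whitney statistic from -0.5 to +0.5, computed with the Universal PBM Analysis Suite. Scale: above 0.35 generally sequence-specific binding.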

Sequence	PBM E-score
ACGTGGCA	0.0549
CCGCCTCG	0.0665
ACCCACGG	-0.215
AGGTTGTA	0.126
CGGGCTTC	-0.347
ACAGGAAC	-0.137
TTCATAAA	0.212
GGCGACGA	-0.204
AAATGCGA	0.0229
GACTTATA	0.152
GCATTGTA	0.047
ATCTCGGA	-0.0515
AGTGTCGA	-0.145
CAATTGTC	0.0392
ACACTACG	0.148
CCTCCCAA	-0.193
ACGCTGCT	-0.22
GAACTAGA	0.114
GGAGGAGA	-0.267
CAAATTGC	0.062
CTTGAATA	0.131
GCTTCTAC	0.00763
AGCAATGG	-0.186
GACCAGTC	-0.247
ATGGTGAG	0.0691

Sequence	PBM E-score
AGGACAGA	-0.184
CCGGTGAC	0.335
ACTAGCAC	-0.258
CTCCGATA	-0.203
AGTTGTAA	0.0542
ATTTTATA	0.321
AAGTAAAG	-0.172
TAGGTAGA	-0.0478
ATTCCCAG	-0.0227
CCTTCAAA	0.166
TTGTCAAA	0.115
GTACTCAC	0.0738
AACCGTCA	0.174
CTGGCGAC	-0.325
AACCTTCG	0.0222
CGTCTCTA	-0.206
ATATGCTA	-0.026
GCAAATAA	0.236
GGATCGCA	-0.0877
CCAGGAGA	-0.262
CATGGAGA	-0.0561
CCTGATAA	0.0577
CCCCTAAA	-0.269
TAACGGTA	0.0366
TACTTTGA	0.145

Sequence	PBM E-score
GGGTCCGA	-0.185
CCTAACAA	0.188
CATCGCTC	-0.0555
CAGGCTGC	-0.135
GTATTAAA	0.243
AAACTTAG	0.0226
ATCTGCCC	-0.326
TCGATACA	0.248
CATAGATA	0.101
TTCGCGAA	0.195
CGGAAAGC	-0.05
CCAAGTGA	0.0744
ATCGCACC	-0.00671
AAGGTTCC	-0.13
GGCGTACC	-0.19
ATTAGGAG	0.0715
CCGATAAC	0.00087
ACAGTGAT	0.233
AATGCGGG	0.0926
ATGGAAGC	0.0741
CAGACATC	-0.0467
GTTTTGAA	0.147
GGCGGTAA	0.0405
AATCGTTA	0.191
TCCACGGA	0.105

Sequence	PBM E-score
ATATGCCC	-0.199
AGGAACTA	-0.0983
ATAGGAAG	-0.0723
ATGCCAGG	-0.278
CGTGATCA	0.143
CTATCATC	0.0729
ACTGAGGG	-0.155
CGGTCCAA	-0.337
ATAAAGCA	0.062
ATATCAAG	0.216
CATACAGG	-0.0907
AGATGTAA	0.27
CCCCTGAG	-0.189
AGTCGTCC	-0.203
ACTGCCAC	-0.0105
AAGCATAC	-0.00158
GTTTTCAA	0.282
GGAGCATA	-0.00076
CCGCCACG	-0.0716
CACCGTTC	-0.0919
ACTTGGTC	-0.043
ACTATGGG	-0.23
ATCATGGC	0.00482
ACATGTCG	-0.0571
GGCGCTGA	0.087

Sequence	PBM E-score
ATCAAGTA	0.0486
TAGTAAAA	0.2
CCATACGA	-0.0654
ACAATCTG	0.00272
AGTATGTA	0.0263
ACACCGGC	-0.131
CGACTGTA	-0.164
TATCCTAA	0.0771
AAGCAGTC	-0.157
CTTCACTA	-0.0315
ACGCTAGA	-0.243
ACCGAGGA	-0.0481
TAGTGCCA	-0.123
GGGTGCAA	-0.0608
TAAAGATA	0.146
GGGAAAGA	-0.0768
GTCAATGA	0.235
ACTGAGCT	-0.0328
CTGAGATA	0.0117
AAAGACTT	-0.00509
CAAGGCGC	0.191
AAAATGCG	0.0836
GCTTGAGA	-0.12
AGTACGGC	0.259
ATAGTTTA	0.0387

Sequence	PBM E-score
CTAGACGA	-0.133
ACACCGGG	-0.097
AGACTGGG	-0.152
TATTCTGA	0.0525
CTATGGAG	-0.236
AAGTTTAC	0.165
GATGACCC	-0.0821
ACTCGAAC	0.166
AGACTGCG	-0.0946
CCAGCTCC	-0.29
GAATTGCA	0.068
ATACCTAC	-0.0269
ACGTTTTC	0.0851
AAGAATTC	0.0929
GTCTGAAC	-0.0404
AAGGCGAA	0.0155
AGGCAACC	-0.178
ATTAAAAA	0.323
GTCCGGCA	-0.176
AAAGGCGC	0.0473
TCAAGTCA	0.129
AACCAGGC	-0.083
TCGTGAGA	-0.011
CTCGCACC	-0.219
CACAAATG	0.0462

Sequence	PBM E-score
ACTAGACG	0.106
GCGGACCC	-0.281
GTACGGCA	0.249
CAACGGAA	0.13
AAGAAGTA	0.158
AAGATACA	0.211
ATATGGGG	-0.134
AGAGAGCG	-0.186
CACCAAGC	-0.131
CAGTCCCC	-0.311
ATGGGGGC	-0.311
GGTCTGTA	-0.183
GTCACGGA	0.148
CAGATTGG	-0.24
ATATGAAC	0.246
ACCGGCAT	-0.0617
CCAGTGAC	0.176
AAATCAGC	0.195
GAACAATC	0.00671
CATGCAGG	-0.197
CTTCGCCC	-0.288
AGTGATGC	0.317
GTTGAATA	0.154
AGATACAC	0.0892
ACCGGGCT	-0.25

Sequence	PBM E-score
GCCGATCA	0.0606
GATTCGAA	0.135
ACTAATTA	0.351
CACCATCC	-0.028
CATCACAC	0.273
AGATTGCT	-0.207
TGGACCAA	-0.0585
ATAGACAC	0.122
CCAACCGG	-0.0768
AGTTCCTC	-0.319
GGGTATGA	0.156
CCAAAAGA	0.207
AGGCGAGC	-0.195
CACCGACG	0.0197
GTTAGCAA	0.0353
CCCATAAG	-0.157
ACCCTAGG	-0.211
AGCCTCCT	-0.181
AATGGCTA	0.0894
CAACGCAA	0.0859
GGCGAACA	-0.0418
ACATGGGG	-0.201
CCCGGCGG	-0.265
CGTCGTCC	-0.232
GCTAACAC	-0.00396

Sequence	PBM E-score
AAATGAGC	0.105
ATATCCAC	-0.0157
CGTACCTC	-0.262
ATTCGGCG	0.0868
AGGCGTAT	0.127
TACTATGA	0.23
AGTCGGAC	-0.144
ATACCGCG	-0.138
ATTTATTG	0.0971
ATAGAAAG	-0.011
GTTGGACA	-0.0168
GAGCGCTC	-0.24
AAGTAAGT	0.116
AACGGCAG	0.134
ACTTATAC	0.135
ATTGTGTC	0.218
CAATTCTC	0.0386
GATCTCGC	0.01
CTGCCGCC	-0.203
GTTGCCTA	-0.0301
CAAGTTGA	-0.0213
GACCATCA	-0.0339
AAAGTTAA	0.241
ATTTCGTA	0.175
GGAGTTTA	0.00491

Sequence	PBM E-score
AACGTTCC	-0.191
CTTGAGAA	0.0695
GCTGGGTA	-0.252
AACAGTAT	0.218
ACTTATGG	-0.048
CCATTGAG	0.0407
CCGATTTC	-0.121
AACTTCTC	0.132
CCCCGCCC	0.0656
ATACCAAA	0.0247
ATGCACTC	-0.133
ACAGATAG	0.00637
CTCCAAGA	-0.127
CTGGAGTC	-0.274
CTACCGAA	-0.0902
CGCCTAAC	0.0659
CAACAATA	0.214
ACCCCCCT	-0.435
TACTGTCA	0.111
AGGATTCA	0.048
AACGAGTG	0.0104
TAACAGGA	0.148
ATACTCCG	0.00929
GCCGATAC	-0.136
CGAAATGC	0.0485

Sequence	PBM E-score
CACGCATC	0.0172
GCTAGTGA	0.183
CCGGTTAG	-0.095
CGGCGCAG	0.17
ACCCTCAT	-0.328
AGTACCAC	-0.14
CGTGGGCA	-0.174
CGTATCGA	0.0611
CCACTCGA	0.0183
AACATTGA	0.139
CGTGAGAA	0.0747
CGCGGGAC	-0.207
CATGGCAC	0.103
CACTTCCG	-0.0551
AGGAATGA	0.137
GTGCGACA	-0.0902
AGTTAGTC	-0.119
ACGCAAGT	0.169
AATTGCGC	0.309
CATGGTAA	0.131
ACGTATAC	0.307
CTTTCCAC	0.125
GGCTAGTA	0.0949
AGTTAGGA	0.00564
ACTTCCCG	-0.105

Sequence	PBM E-score
ACCCTCGT	-0.0894
ACGGACTC	-0.251
GCAACCCC	-0.303
ACTGAGAA	-0.0352
ATGACGAG	0.398
ATAAATGG	0.156
CGGGATTA	0.109
ACATTTAT	0.15
GCTCTTTA	0.0642
CTCTCTGC	-0.249
ACCCACGT	0.0287
AAACGGTA	0.112
ATCGTTGA	0.0312
AGCATTAG	-0.0629
ATCGTCAA	0.223
CACCTTAG	0.00913
CTAAGAAG	0.138
CAAACCCA	-0.00988
GAGCGACC	-0.224
CACTCCCG	-0.0804
CGGACAAG	-0.0342
AGTAAATC	0.111
GGATAAGA	-0.0159
AACACGCC	-0.0537
GAAATGTC	-0.123

Sequence	PBM E-score
AAGATTGA	0.233
GAATAGTA	0.0771
CGTATCCA	-0.111
TACATTAA	0.19
AGATTTAG	0.0908
CTCTTGTC	0.0332
ATGGCCAA	-0.021
GTGTAATA	0.214
GCGGGCCA	-0.284
ATCAAAGG	-0.0902
ATGAGACC	-0.11
CAAGGGCA	-0.307
ACGCCATC	0.0988
CCACCGAA	-0.0423
ATTCATGA	0.202
AATTATCC	0.188
ACATGGTA	0.0633
CGTCTTGA	-0.0177
AACAGAAA	0.213
ACGATGGC	0.0254
GTACAACA	0.23
GTACACAA	0.0535
CTATGACA	0.264
GCAGGAAC	-0.196
ATACATGC	-0.0391

Sequence	PBM E-score
CGCGTTCA	0.133
CATGCCGG	0.0708
CCATTATA	0.0936
ATGGTTTA	0.0866
CTCGTTGC	0.17
TACTGGGA	-0.0281
TGTGTTAA	0.173
AGCGAGGG	-0.219
CGAAAGAA	-0.0106
AGTGCGAC	-0.108
ACCCGAGG	-0.146
ACAGAAGT	0.134
ATCGATCA	0.104
TCACCTGA	-0.0189
GCCAGCCC	-0.311
CCATGGAC	-0.158
CCGTAAAC	0.0456
AGGCGACC	-0.0847
GATCATCA	0.163

Source: the supplement of paper PMC3334620
